Reference: US20220117938A1, “COMBINATON THERAPY WITH A DON PRODRUG AND AN IMMUNE CHECKPOINT INHIBITOR” (DRACEN PHARMACEUTICALS, INC., priority 2019, published 2022)
Further values from the same series stand in other lists.

Test system: MC-38 tumors
Assay: Anti-tumor efficacy of Compound 1 with and without anti-PD-1 in the subcutaneous MC-38 model (Example 4)
Format: in vivo, Mus musculus
Protocol: Tumor sizes were measured three times a week in two dimensions using a caliper, and the volume expressed in mm^3 using the formula: V=0.5 a×b^2 where a and b are the long and short diameters of the tumor, respectively. The tumor sizes were then used for the calculations of both tumor growth inhibition (TGI) and T/C values.
TGI is calculated for each group using the formula: […]
TVTreatment_DayN is the average tumor volume of a treatment group on a given day, TVTreatment_Day0 is the average tumor volume of the treatment group on the first day of treatment, TVVehicle_DayN is the average tumor volume of the vehicle control group on a given day, and TVVehicle_Day0 is the average tumor volume of the vehicle group on the first day of treatment.
The T/C value (in percent) is an indication of antitumor effectiveness, T/C (%)=RTVTreatment/RTVControl×100% (RTVTreatment: the mean RTV of the treatment group; RTVControl: the mean RTV of the vehicle treated group). RTV (relative tumor volume)=TVDayN/TVDay0. TVDayN and TVDay0 is the tumor volume on day N and Day 0 respectively. T/C (%)≤42% is considered as significant antitumor activity and <10% is considered as highly significant antitumor activity by the National Cancer Institute criteria.
Animal survival curve: When an individual animal reached to the termination endpoint (TV>2000 mm^3), the mouse was euthanized. The time from treatment initiation to the termination was deemed as its survival time. Survival curve was plotted by Kaplan-Meier method. Median survival time (MST) was calculated for each group. Increase of life span (ILS) was calculated according to the following formula: […]
ILS (%)>25% is considered as a biologically significant survival benefit.
The tumor volume between different groups was analyzed by two-way repeated measures ANOVA. Dunnett post hoc test was used for the comparisons with vehicle group. All data analyzed using GraphPad Prism 6.0. P<0.05 is considered to be statistically significant.
Female C57BL/6 mice were inoculated subcutaneously at right flank with MC-38 cells for tumor development. Six days after tumor inoculation, 64 mice with tumor size ranging from 50-100 mm^3 (average tumor size 71 mm^3) were selected and assigned into 8 groups using stratified randomization with 8 mice per group based upon their tumor volumes. The treatments were started from the day of randomization (defined as D0), Group 1 was treated with Vehicle (Tween 80:Ethanol:Saline—5:5:90 v/v/v), s.c., qd×14, Group 2 was treated with Anti-PD-1 10 mg/kg i.p. q4d×4, Group 3 was treated with Compound 1 3 mpk qd×5, sc followed by 1 mpk, qd×9, sc, Group 4 was treated with Compound 1 3 mpk qd×5, sc followed by 1 mpk, qd×9, sc+anti PD-1 q4d×4, ip, Group 5 was treated with Compound 1 1 mpk qd×5, sc followed by 0.3 mpk, qd×9, sc, Group 6 was treated with Compound 1 1 mpk qd×5, sc followed by 0.3 mpk, qd×9, sc+anti PD-1 q4d×4, ip, Group 7 was treated with Compound 1 0.3 mpk qd×5, sc followed by 0.1 mpk, qd×9, sc and Group 8 was treated with Compound 1 0.3 mpk qd×5, sc followed by 0.1 mpk, qd×9, sc+anti PD-1 q4d×4, ip. The tumor sizes were measured three times per week during the treatment. The entire study was terminated on D56 after start of the treatment. […]
The MC-38 tumor cells were maintained in vitro as a monolayer culture in DMEM medium supplemented with 10% heat inactivated fetal bovine serum and 100 μg/mL penicillin streptomycin at 37° C. in an atmosphere of 5% CO2 in air. The tumor cells were routinely subcultured twice weekly by trypsin-EDTA treatment. The cells growing to a confluency around 70%-80% were harvested and counted for tumor inoculation. The cultured MC-38 were harvested, re-suspended in base medium at a density of 1×10^7 cells/mL with viability >90%. Each mouse was inoculated subcutaneously at the right flank with 1×10^6 cells in 0.1 ml base medium for tumor development. […]

For `CC(=O)N[C@@H](Cc1c[nH]c2ccccc12)C(=O)N[C@@H](CCC(=O)C=[N+]=[N-])C(=O)OC(C)C` [Compound 1, Isopropyl (S)-2-((S)-2-acetamido-3-(1H-indol-3-yl)propanamido)-6-diazo-5-oxohexanoate], the “Tumor volume (Mean ± SEM)” value (Day 0, Cpd. 1 0.3 mpk qdx5 followed by 0.1 mpk qdx9, sc) was 72 ± 5 mm^3, the “Tumor volume (Mean ± SEM)” value (Day 0, Cpd. 1 1 mpk qdx5 followed by 0.3 mpk qdx9, sc) was 71 ± 5 mm^3 and the “Tumor volume (Mean ± SEM)” value (Day 0, Cpd. 1 3 mpk qdx5 followed by 1 mpk qdx9, sc) was 70 ± 4 mm^3. For the same compound, the “Tumor volume (Mean ± SEM)” value (Day 2, Cpd. 1 0.3 mpk qdx5 followed by 0.1 mpk qdx9, sc) was 86 ± 11 mm^3, the “Tumor volume (Mean ± SEM)” value (Day 2, Cpd. 1 1 mpk qdx5 followed by 0.3 mpk qdx9, sc) was 67 ± 5 mm^3 and the “Tumor volume (Mean ± SEM)” value (Day 2, Cpd. 1 3 mpk qdx5 followed by 1 mpk qdx9, sc) was 63 ± 7 mm^3. The “Tumor volume (Mean ± SEM)” value (Day 5, Cpd. 1 0.3 mpk qdx5 followed by 0.1 mpk qdx9, sc) was 72 ± 6 mm^3, the “Tumor volume (Mean ± SEM)” value (Day 5, Cpd. 1 1 mpk qdx5 followed by 0.3 mpk qdx9, sc) was 38 ± 3 mm^3 and the “Tumor volume (Mean ± SEM)” value (Day 5, Cpd. 1 3 mpk qdx5 followed by 1 mpk qdx9, sc) was 25 ± 4 mm^3. The “Tumor volume (Mean ± SEM)” value (Day 7, Cpd. 1 0.3 mpk qdx5 followed by 0.1 mpk qdx9, sc) was 70 ± 9 mm^3, the “Tumor volume (Mean ± SEM)” value (Day 7, Cpd. 1 1 mpk qdx5 followed by 0.3 mpk qdx9, sc) was 27 ± 5 mm^3 and the “Tumor volume (Mean ± SEM)” value (Day 7, Cpd. 1 3 mpk qdx5 followed by 1 mpk qdx9, sc) was 19 ± 3 mm^3. The “Tumor volume (Mean ± SEM)” value (Day 9, Cpd. 1 0.3 mpk qdx5 followed by 0.1 mpk qdx9, sc) was 76 ± 12 mm^3, the “Tumor volume (Mean ± SEM)” value (Day 9, Cpd. 1 1 mpk qdx5 followed by 0.3 mpk qdx9, sc) was 25 ± 4 mm^3 and the “Tumor volume (Mean ± SEM)” value (Day 9, Cpd. 1 3 mpk qdx5 followed by 1 mpk qdx9, sc) was 12 ± 2 mm^3. The “Tumor volume (Mean ± SEM)” value (Day 12, Cpd. 1 0.3 mpk qdx5 followed by 0.1 mpk qdx9, sc) was 114 ± 25 mm^3, the “Tumor volume (Mean ± SEM)” value (Day 12, Cpd. 1 1 mpk qdx5 followed by 0.3 mpk qdx9, sc) was 27 ± 7 mm^3 and the “Tumor volume (Mean ± SEM)” value (Day 12, Cpd. 1 3 mpk qdx5 followed by 1 mpk qdx9, sc) was 8 ± 2 mm^3.
